Experimental data taken from PubChem BioAssay AID2202238 (Ras Initiative Chemistry Research Team, Frederick National …, 2025).
Some of the results follow. The main result of the screen is listed elsewhere. These columns were measured beside it and carry no call.

Molecular target: GTPase KRas (Homo sapiens) (UniProt P01116)
Assay: Fragment capture on engineered cysteines, share of protein labelled (AID 2202238)
Set-up: protein at 5 µM with 500 µM competing thiol for 1.5 h
Settings: KRAS G12D cysteine mutants, disulfide tethering, MALDI-TOF labeling, stronger effect = higher value, fragment at 500 µM
[1] = measured here: G75C mutant labeling
[2] = measured here: H94C mutant labeling
[3] = measured here: I36C mutant labeling
[4] = measured here: L120C mutant labeling
[5] = measured here: M67C mutant labeling
[6] = measured here: M72C mutant labeling
[7] = measured here: N86C mutant labeling
[8] = measured here: P121C mutant labeling
[9] = measured here: S122C mutant labeling
[10] = measured here: S136C mutant labeling
[11] = measured here: G60C mutant labeling
[12] = measured here: N26C mutant labeling

Chain of UniProt P01116 (P01116 whole entry, looked up, the tested form may be a part): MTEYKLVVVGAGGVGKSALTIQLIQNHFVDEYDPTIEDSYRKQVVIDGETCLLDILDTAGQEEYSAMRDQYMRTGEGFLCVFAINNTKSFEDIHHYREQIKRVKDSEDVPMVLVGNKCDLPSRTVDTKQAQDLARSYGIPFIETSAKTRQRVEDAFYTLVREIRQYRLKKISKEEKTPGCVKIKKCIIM

SMILES | percent labeling [1] [%] | percent labeling [2] [%] | percent labeling [3] [%] | percent labeling [4] [%] | percent labeling [5] [%] | percent labeling [6] [%] | percent labeling [7] [%] | percent labeling [8] [%] | percent labeling [9] [%] | percent labeling [10] [%] | percent labeling [11] [%] | percent labeling [12] [%]
O=C(CCS)Nc1ccc2c(c1)ncn2CC(F)(F)F | 10.6 | 24.5 | 24.6 | 27 | 25.7 | 25.7 | 17.1 | 21.7 | 25.3 | 36.4 | – | –
CC1(C)CC(C(=O)NCCS)C1C(F)(F)F (centres undefined) | 9.6 | 21.7 | 14.8 | 18.1 | 17.6 | 18.7 | 21.7 | 20 | 22.2 | 30.5 | 37.7 | 26.5
C[C@H](C(=O)NCCS)N1Cc2ccccc2C1=O | 13.6 | 30.9 | 25.1 | 43.5 | 38.7 | 26.9 | 23.5 | 39.3 | 30.2 | 58.6 | 32.6 | 38.9
CCOC(=O)c1[nH]ncc1C1CCN(C(=O)CCS)CC1 | 20.1 | 36 | 41.1 | 33.1 | 48.9 | 43 | 19.6 | 39.8 | 44.6 | 63.5 | – | –
CN(CC(=O)Nc1ccc2c(c1)OCCO2)C(=O)CCS | 11.9 | 32.9 | 38 | 45.9 | 33.9 | 30.3 | 30 | 32.4 | 31.9 | 45.2 | – | –
COc1cccc(Cn2nc(C)c3c(NC(=O)CCS)[nH]nc32)c1 | 15 | 19.2 | 30 | 20.3 | 22.6 | 23.4 | 14.2 | 15.8 | 18.4 | 47.2 | – | –
O=C(NCCS)C(F)(F)c1ncc[nH]1 | 24.4 | 23.9 | 20.1 | 30.5 | 21.1 | 20.7 | 26.8 | 19.1 | 21.1 | 30.9 | 28.6 | 24.2
COc1ccc2c(c1)CC1(CCN(C(=O)CCS)CC1)C2=O | 15.6 | 34 | 38 | 24.4 | 44.6 | 53.1 | 28.1 | 26.2 | 24 | 48 | – | –
CCc1oc2ccccc2c1CC(=O)NCCS | 24.5 | 24.6 | 13 | 35 | 15.1 | 36.6 | 15.9 | 18.8 | 14.6 | 31.8 | 59.6 | 26.5
O=C(CCS)Nc1ccc(-c2nnc3n2CCOC3)cc1 | 12 | 22.1 | 34 | 30.5 | 26.9 | 37.6 | 18.8 | 24.1 | 23.2 | 33.2 | – | –
O=C(CNC(=O)c1cc2ccccc2[nH]1)NCCS | 9.1 | 16.1 | 16.3 | 26.6 | 19.7 | 24.2 | 16.2 | 15.6 | 12.8 | 15.5 | 19.3 | 37.9
COc1ccnc(N2CCN(C(=O)CCS)CC2)n1 | 20.2 | 36 | 42.5 | 32 | 42.8 | 33.1 | 31 | 33.7 | 36.8 | 66 | – | –
COc1ccc(-n2nc(C(=O)NCCS)cc2C)cc1 | 14.6 | 38.4 | 23.3 | 32.3 | 34.2 | 27.6 | 21 | 26.5 | 25.4 | 43.4 | 41.3 | 43.3
O=C(NCCS)c1ccc(Cc2n[nH]c(=O)c3ccccc23)cc1F | 9.5 | 10.6 | 7.6 | 9.3 | 9.8 | 39.7 | 8.3 | 7.4 | 3.9 | 17.1 | 20.3 | 24.6
Cc1nn(C2CCOCC2)cc1NC(=O)CCS | 8 | 26.7 | 25.8 | 30 | 30.4 | 16.1 | 11.3 | 30.2 | 34.4 | 47.8 | – | –
